In the supplement of paper PMC3334620:
Whole data set: some 33,000 sequences, median “E-score (-0.5 to 0.5)” near -0.017, cut for the highest 2% near 0.3. Some of the results follow.

biological target: T1, Sut1 (UniProt P53032); experiment: PBM E-score (8-mer binding enrichment) (E-score (-0.5 to 0.5)); higher = stronger / more preferred TF binding; most listed sequences are background and not binding sites; conditions: protein concentration: 200 nM; construct: GST-full length
T1 sequence: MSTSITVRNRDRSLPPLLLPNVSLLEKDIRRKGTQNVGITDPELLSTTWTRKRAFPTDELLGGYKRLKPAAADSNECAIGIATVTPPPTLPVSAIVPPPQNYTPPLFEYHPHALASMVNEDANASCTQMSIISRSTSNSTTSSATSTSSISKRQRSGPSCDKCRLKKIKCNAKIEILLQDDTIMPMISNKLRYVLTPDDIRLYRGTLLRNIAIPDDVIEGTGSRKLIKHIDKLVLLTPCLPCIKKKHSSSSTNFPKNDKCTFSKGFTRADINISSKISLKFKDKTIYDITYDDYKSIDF
Summary of the method: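 PURExpress in vitro transcription/translation supplied GST-tagged yeast transcription factors, either full-length or DNA-binding domain. Applied at about 100-200 nM to universal all-10-mer Agilent arrays double-stranded by primer extension, the bound protein was detected with fluorescent anti-GST. E-scores, modified Wilcoxon-Mann-Whitney statistics, were given by the Universal PBM Analysis Suite to ungapped eight-base words pooled with their reverse complements after masliner normalisation.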

| Sequence | PBM E-score |
| --- | --- |
| GTACCCGA | -0.24 |
| CTCTCCGA | 0.257 |
| ACACTGCT | -0.293 |
| CATTTTGG | -0.0637 |
| GATACACA | 0.0383 |
| AGAAATAG | 0.1 |
| CTAAATCA | 0.111 |
| GTATTCAA | 0.187 |
| ACGGAGCG | 0.2 |
| AACAGAAT | 0.0169 |
| ATGCAGTA | 0.0258 |
| ACTTTAAT | 0.201 |
| CTTCTAGA | 0.0189 |
| ACCGTCCC | -0.187 |
| GAAAGAGA | 0.0565 |
| AACTTCCG | 0.294 |
| ATCCGCTG | -0.18 |
| AAGCTTTG | 0.0179 |
| AAGATAGC | 0.157 |
| TCAGGTCA | -0.0551 |
| ATGTGAGC | -0.245 |
| AACGTTCG | -0.132 |
| CGTCCCGC | -0.213 |
| ACTCGTGA | -0.128 |
| ATATTGGC | -0.0325 |

| Sequence | PBM E-score |
| --- | --- |
| CACCTGCG | -0.0338 |
| CTCGGCAG | 0.0615 |
| AAGTGCGT | -0.0255 |
| CCGGGTGA | 0.0118 |
| GCATAAAA | 0.19 |
| AAGCACCT | -0.0904 |
| AAGCTACA | -0.00205 |
| CATCACGC | 0.128 |
| ATGCTTAA | 0.159 |
| CATTCCTC | 0.0201 |
| GACCCTTA | -0.0167 |
| AAGATTAA | 0.241 |
| GAAACCTA | -0.113 |
| AGCGGCCC | -0.299 |
| AAATGCGT | 0.077 |
| TCATGTAA | 0.213 |
| ATTTGTAC | 0.0799 |
| CATAGACA | 0.0146 |
| GAGTCTGA | -0.171 |
| ATGTTGCC | -0.105 |
| GCGTTCAC | -0.0118 |
| CAAGCCTG | -0.229 |
| ACTACAGT | -0.0141 |
| ACTTCTCC | 0.192 |
| ATAGAGGG | -0.0434 |

| Sequence | PBM E-score |
| --- | --- |
| ATACCTAT | 0.0494 |
| CGAGAGAC | -0.208 |
| CAATCCGC | -0.0291 |
| AATGCAAG | -0.0298 |
| CGTCTCAC | -0.115 |
| CGTAGGTC | -0.205 |
| TGGTAAAA | 0.232 |
| ACTAAGAT | 0.204 |
| AACATCAA | 0.28 |
| GCGAGTGA | -0.0991 |
| CTATTTAC | 0.233 |
| AATCACGC | 0.0758 |
| ATTGGGCG | -0.12 |
| GAGCTGAA | 0.01 |
| ATATATTG | 0.186 |
| CTGGTATA | -0.194 |
| TATTGCGA | 0.087 |
| ACCGAGTA | -0.0936 |
| GGCTTATA | -0.0706 |
| TCCCGCCA | -0.161 |
| CACCCAGG | -0.182 |
| TCCAAGAA | 0.104 |
| AAGCTAAG | -0.223 |
| CCACGGAG | 0.365 |
| TTCTCAAA | 0.183 |

| Sequence | PBM E-score |
| --- | --- |
| CCAGTTTC | -0.173 |
| GCTCTGCA | -0.301 |
| AAGCTTAA | 0.0913 |
| CACCACGG | -0.106 |
| GGTCGTCA | -0.157 |
| AACTACCA | 0.203 |
| CTAAACCC | 0.0437 |
| CAAACTTA | 0.196 |
| ATTTTGGG | 0.0303 |
| CACATACA | -0.00783 |
| CCTAAACC | 0.00969 |
| CTAGATCC | -0.105 |
| ACGGTGAA | 0.111 |
| GTCGTCAC | -0.0815 |
| GCCTGTGA | -0.192 |
| GGTCTCAA | -0.06 |
| ATTATTAG | 0.144 |
| CCCAACAA | 0.0113 |
| CGACACAG | -0.194 |
| AGCATGCT | -0.3 |
| ACCGCCGG | 0.00111 |
| GAATTAAA | 0.145 |
| GTTGTTCA | 0.0942 |
| TAGTACTA | 0.0139 |
| CTACGTTA | 0.0635 |

| Sequence | PBM E-score |
| --- | --- |
| AGCACTTA | -0.117 |
| ATTAGGTC | 0.159 |
| CTGTGTTC | -0.0512 |
| AACGCATA | -0.0271 |
| ACCGACGG | -0.0055 |
| CGATGGCA | -0.136 |
| CGCAATAG | -0.00083 |
| TCCGAAGA | 0.39 |
| CAATACCC | -0.0401 |
| GTACAGTA | 0.023 |
| AACAGTGA | -0.0221 |
| TTACGCAA | 0.0762 |
| CAGAAAGG | -0.0393 |
| CCCCCGCA | -0.181 |
| AGTCACAG | -0.22 |
| GCGTCCAA | -0.144 |
| GTGATAAA | 0.0786 |
| CTTCAATA | 0.0945 |
| TAGCACAA | -0.0323 |
| TGGCGAAA | -0.0435 |
| CGGAGAAC | 0.33 |
| CAGGGAAG | -0.285 |
| TACGCTCA | -0.0128 |
| GAATTTGA | 0.144 |
| GAGAATCC | 0.0458 |

| Sequence | PBM E-score |
| --- | --- |
| TAAGACTA | -0.0422 |
| CGTCTCAG | -0.148 |
| AAAGATCG | 0.0203 |
| ACCTCTCC | -0.114 |
| CTTAATAC | 0.0573 |
| GAAGGGAA | -0.158 |
| AACTCGAG | -0.128 |
| CATAGCTC | -0.163 |
| CGAGCGTA | -0.0805 |
| ACAGTGGA | 0.0793 |
| CAGATTAC | 0.0158 |
| ACGATGTA | -0.0164 |
| CAGGGTCC | -0.163 |
| CGATGATA | 0.163 |
| CCCAATAC | 0.0578 |
| ACCATAAA | 0.175 |
| ATTTACCC | 0.0895 |
| GGAGTGTA | 0.15 |
| TAGACGAA | 0.0446 |
| AGAGTGCA | -0.126 |
| GAGTGTCA | 0.0947 |
| AAGAACCC | -0.0332 |
| AGGAACGG | 0.0393 |
| CATAACAG | 0.00057 |
| CTTAAAGA | 0.111 |

| Sequence | PBM E-score |
| --- | --- |
| AACTTGTA | -0.00608 |
| CCCAAGCG | -0.226 |
| GCCCACCA | -0.222 |
| CTTTGGTA | -0.0369 |
| ATTAACAC | 0.302 |
| GAGATCTA | -0.0723 |
| CATATGAA | 0.192 |
| GTACTCGA | -0.0681 |
| TGTTACAA | 0.136 |
| GTCCACGA | -0.255 |
| AGCTAATC | 0.114 |
| TAGCCAGA | -0.079 |
| ACGCTCGC | -0.112 |
| AGAGTCTG | -0.236 |
| GGAGCTAC | 0.0015 |
| AATTGTAA | 0.115 |
| AGCCCAGC | -0.131 |
| ACAGGGAA | -0.216 |
| AAGTGCCT | -0.316 |
| ACCCTGCG | -0.108 |
| ATGTGTAC | -0.0287 |
| AGCACTAC | -0.162 |
